The campaign covered roughly 48,000 compounds. About 550 (1.1%) were called active. Not shown: some 4% with an inconclusive outcome. Cut-off read from the data, not from the text of the source: active = potency below about 15 µM; inconclusive = mostly about 16 µM to 33 µM; inactive = weaker than that. The list shows a part of the results. Starred links: 1 amine or outer side, 2 acyl side, 3 side chain; linkers in the order of their positions; H or OH if unused. Residues, ends and D or L forms follow the SMILES beside them. *: point of attachment. CO = O=C([*:1])[*:2]; NHPh = c1ccc(N*)cc1 Where only a bound is given, the exact number is not on record here.
Potency is the fitted concentration of half-maximal effect.

For this test, the target named is Lysosomal acid glucosylceramidase (Homo sapiens) (UniProt P04062). The test is described as follows: Glucocerebrosidase.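 Note: the screen sought inhibitors.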 The following applies: purified enzyme, resorufin glucoside fluorescence (screen aimed at inhibitors), 20 min; series mostly up to 77 µM. An outline of the steps: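 Compounds titrated against 0.2 nM normal enzyme, 30 uM resorufin beta-D-glucopyranoside substrate, citrate/phosphate buffer with taurocholate and tween-20, pH 5.9. Reaction ran 20 min at room temperature; fluorescence (Ex 548/Em 600) gave AC50.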
Sequence of UniProt P04062 (P04062 whole entry, looked up): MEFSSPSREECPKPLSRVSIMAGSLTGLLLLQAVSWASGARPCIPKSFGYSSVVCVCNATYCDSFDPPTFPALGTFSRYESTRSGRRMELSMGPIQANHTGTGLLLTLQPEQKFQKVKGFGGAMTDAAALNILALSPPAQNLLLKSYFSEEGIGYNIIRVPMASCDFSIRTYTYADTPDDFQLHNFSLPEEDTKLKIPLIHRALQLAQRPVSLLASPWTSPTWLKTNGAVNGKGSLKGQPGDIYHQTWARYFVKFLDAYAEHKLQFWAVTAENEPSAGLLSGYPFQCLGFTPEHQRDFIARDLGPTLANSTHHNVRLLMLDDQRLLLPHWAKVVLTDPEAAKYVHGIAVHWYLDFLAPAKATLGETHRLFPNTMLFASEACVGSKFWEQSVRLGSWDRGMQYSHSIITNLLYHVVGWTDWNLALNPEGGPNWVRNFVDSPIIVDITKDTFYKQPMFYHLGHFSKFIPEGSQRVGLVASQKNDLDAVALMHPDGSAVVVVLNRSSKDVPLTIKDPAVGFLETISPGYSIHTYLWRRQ
Turning to `COC(=O)c1ccccc1NC(=O)c1cccs1`, the Potency is inactive: > 76.9 µM.

Consider `CCOC(=O)N1CCN(C(=O)CCCOc2ccccc2)CC1`, for which the Potency was inactive: > 76.9 µM.

Regarding `Cc1cc(C)n2cc(CSc3nnnn3-c3ccccc3C)nc2n1`, the Potency was inactive: > 76.9 µM.

Turning to `Cc1ccc(Nc2nnc(SCc3cc(=O)n4ccsc4n3)s2)c(C)c1`, the Potency is inactive: > 76.9 µM.

For the compound `CCn1c(N2CCN(CC(=O)c3c[nH]c4ccccc34)CC2)nc2c1c(=O)[nH]c(=O)n2C`, the Potency is inactive: > 76.9 µM.

As to `Cc1cc(=O)[nH]c2c1c(C)nn2-c1ccccc1`, the Potency is inactive: > 76.9 µM.

`COC(=O)CNC(=O)CNC(=O)Nc1ccccc1` ({NHPh-CO}-Gly-Gly-OMe): the Potency was inactive: > 76.9 µM.

With `COc1ccc(-n2cnnc2SCCC#N)cc1`, the Potency is inactive: > 76.9 µM.

With `COc1ccc(OC)c(N/C(C)=C/C(=O)c2ccc(C)o2)c1`, the Potency was inactive: > 76.9 µM.

Regarding `Cc1nn(C)c(C)c1S(=O)(=O)N1CCCC(C(=O)N2CCN(c3ccc(Cl)cc3)CC2)C1` (stereo not drawn), the Potency was inactive: > 76.9 µM.

For the compound `CC(C)NS(=O)(=O)c1ccc(OCC(=O)NCc2cccnc2)cc1`, the Potency is inactive: > 76.9 µM.

For the compound `c1nc2sc3c(c2c2nnnn12)CCCC3`, the Potency was inactive: > 76.9 µM.

As for `CCCCCC(=O)N(O)C1CC(=O)N(c2ccccc2)C1=O` (stereo not drawn), the Potency is inactive: > 76.9 µM.

Consider `O=C(COC(=O)c1ccc[nH]c1=O)c1ccc(Cl)s1`, for which the Potency was inactive: > 76.9 µM.

For `COC(=O)Nc1c(C)n(C)n(-c2ccccc2)c1=O`, the Potency was inactive: > 76.9 µM.

As to `O=C(NCC(=O)N(Cc1ccco1)C(C(=O)NC1CCCCC1)c1cccnc1)c1ccco1` (stereo not drawn), the Potency is inactive: > 76.9 µM.

For `COc1ccc(OC)c(S(=O)(=O)NCc2ccccc2)c1`, the Potency is inactive: > 76.9 µM.

Take `CCCC(=O)Nc1cccc(NC(=O)c2ccc3c(c2)OCCO3)c1`: the Potency is inactive: > 76.9 µM.

For the compound `Nc1c(N2CCCC2)cc(Cl)c2nonc12`, the Potency was inactive: > 76.9 µM.

Consider `N#CCSc1nnc2c(Cl)cc(Cl)cn12`, for which the Potency is inactive: > 76.9 µM.

Regarding `Cc1csc(=O)n1CC(=O)OCc1cccc2ccccc12`, the Potency was inactive: > 76.9 µM.

Consider `Cn1nnc(C(O)CN2CCOCC2)n1` (stereo not drawn), for which the Potency was inactive: > 76.9 µM.

As to `CCOC(=O)Cn1c(C)c(C#N)c2ccccc21`, the Potency was inactive: > 76.9 µM.

Turning to `CCOc1ccc(-c2noc(=O)[nH]2)cc1`, the Potency was inactive: > 76.9 µM.

`COC(=O)c1ccc(CSc2ccc3nnc(-c4ccc(OC)c(OC)c4)n3n2)o1`: the Potency is inactive: > 76.9 µM.

Turning to `Cc1noc2nc(-c3cccs3)cc(-c3nnc4n3CCCCC4)c12`, the Potency is inactive: > 76.9 µM.

In the case of `CCN(CC)c1ccc(NC(=O)c2cc3ccccc3o2)c(C)c1`, the Potency was inactive: > 76.9 µM.

Take `CCCCC(=O)NCCNc1nc2c(c(=O)n(C)c(=O)n2C)n1Cc1ccccc1`: the Potency is inactive: > 76.9 µM.

Regarding `CC(=O)N(C(C)=O)c1c(N2CCOCC2)c2ccccc2oc1=O`, the Potency was inactive: > 76.9 µM.

Regarding `Cc1ccc2c(c1)NCC(C(=O)NC1CCCCC1)O2` (stereo not drawn), the Potency is inactive: > 76.9 µM.

Turning to `CCN(CC(=O)NC)S(=O)(=O)c1ccc(Br)cc1`, the Potency is inactive: > 76.9 µM.

Take `CC(=O)N=C1SC2CS(=O)(=O)CC2N1c1ccccc1Cl` (stereo not drawn): the Potency was inactive: > 76.9 µM.

Turning to `Cc1ccc2oc(C(=O)Nc3c(C)n(C)n(-c4ccccc4)c3=O)c(C)c2c1`, the Potency was inactive: > 76.9 µM.

Consider `Cc1cc(C(=O)OCC(=O)N(C)C2CCS(=O)(=O)C2)c(C)n1-c1ccccc1` (stereo not drawn), for which the Potency is inactive: > 76.9 µM.

Take `CCOc1cc(CN2CCCCC2)ccc1OC`: the Potency is inactive: > 76.9 µM.

As to `CCCCCOc1ccc(NS(C)(=O)=O)cc1`, the Potency is inactive: > 76.9 µM.

In the case of `[O-][n+]1onc2c1C(N1CCOCC1)CCC2N1CCOCC1` (stereo not drawn), the Potency is inactive: > 76.9 µM.

Take `C#CCNc1nc(C(C)C)nc2c1nnn2Cc1ccccc1F`: the Potency is inactive: > 76.9 µM.

As for `O=C(CSc1cccc2cccnc12)N1CCCC1`, the Potency was inactive: > 76.9 µM.

As for `O=C(CSc1nnc(CNc2ccccc2)o1)c1ccc2c(c1)OCCO2`, the Potency was inactive: > 76.9 µM.

For `Cc1noc(C)c1CSCC(=O)OCC(=O)Nc1sccc1C#N`, the Potency is inactive: > 76.9 µM.

Regarding `COc1ccc(C2Nc3ccccc3C(=O)N2O)cc1OC` (stereo not drawn), the Potency is inactive: > 76.9 µM.

For `Cc1ccc2nc(CCc3nc4ccc(C)cc4o3)oc2c1`, the Potency is inactive: > 76.9 µM.

On to `Cn1c(=O)c2c(nc(Sc3nc4ccccc4n3CC(=O)N3CCCCC3)n2C)n(C)c1=O`, for which the Potency was inactive: > 76.9 µM.

`CCOc1ccc(NS(=O)(=O)N(C)C)cc1`: the Potency is inactive: > 76.9 µM.

For `CCOC(=O)Cn1c2c(c(=N)c3ccccc31)CCC2`, the Potency was inactive: > 76.9 µM.

Turning to `O=C(O)C1C2CCC(O2)C1C(=O)NCCC1=CCCCC1` (stereo not drawn), the Potency was inactive: > 76.9 µM.

In the case of `CCn1ncc(Br)c1C(=O)Nc1sc2c(c1C(=O)OC)CCC2`, the Potency is inactive: > 76.9 µM.

Turning to `O=C(NCCCN1CCOCC1)c1coc2ccccc2c1=O`, the Potency was inactive: > 76.9 µM.

Turning to `CC1CCN(CCCNC(=O)C2CC(=O)N(C3CCCCCC3)C2)CC1` (stereo not drawn), the Potency was inactive: > 76.9 µM.

Consider `COCCOCCn1c(CCCO)nc2ccccc21`, for which the Potency was inactive: > 76.9 µM.

Turning to `CC1CN(S(=O)(=O)c2ccc(Cl)c(C(F)(F)F)c2)CC(C)O1` (stereo not drawn), the Potency is inactive: > 76.9 µM.

For `CC(=O)Nc1cc2c(cc1C(C)=O)OCCO2`, the Potency is inactive: > 76.9 µM.

`Cc1ccc(NC(=O)CCCC(=O)O)c(Br)c1`: the Potency was inactive: > 76.9 µM.

On to `COC(=O)c1ccccc1NC(=O)C1CC(=O)N(c2ccc(F)cc2)C1` (stereo not drawn), for which the Potency is inactive: > 76.9 µM.

With `CCOC(=O)Cc1csc(NC(=O)c2cccs2)n1`, the Potency was inactive: > 76.9 µM.

As to `Cn1c(=O)c2[nH]c(CN(Cc3ccccc3)Cc3ccccc3)nc2n(C)c1=O`, the Potency was inactive: > 76.9 µM.

Take `Cc1cc(N)c(NC2=CC(=O)CC(C)(C)C2)cc1C`: the Potency is inactive: > 76.9 µM.

For `Cc1cc(C)nc(SCC(=O)N2CCC(C(N)=O)CC2)n1`, the Potency is inactive: > 76.9 µM.

As to `CC1(C)CC(=O)C2=C(C1)NC(SCC(=O)Nc1ccccc1)=C(C#N)C2c1ccco1` (stereo not drawn), the Potency result is “inactive”.

For `COc1ccc(NC(=O)c2cccs2)cc1O`, the Potency is inactive: > 76.9 µM.

Regarding `Cc1cc(-c2ccccc2)nc(N2CCC(C(=O)NC(C)C)CC2)n1`, the Potency is inactive: > 76.9 µM.

As for `COc1cc(NC(=O)CN2C(=O)NC(C)(CCC(C)C)C2=O)cc(OC)c1` (stereo not drawn), the Potency was inactive: > 76.9 µM.

With `CCOc1ccc(-n2c(COc3ccc(C)cc3)nnc2SCC(N)=O)cc1`, the Potency is inactive: > 76.9 µM.

For `COC(=O)[C@H](Cc1ccccc1)NC(=O)NCc1ccc(S(N)(=O)=O)cc1`, the Potency is inactive: > 76.9 µM.

For `COc1ccc(OC)c(NC(=O)CN(c2ccc(C)cc2)S(=O)(=O)c2c(C)noc2C)c1`, the Potency is inactive: > 76.9 µM.

Take `c1ccc(-c2nn3c(-c4ccco4)nnc3s2)nc1`: the Potency is inactive: > 76.9 µM.

As for `CCCc1cc(C(=O)OC)c(NC(=O)OCC)s1`, the Potency was inactive: > 76.9 µM.

Turning to `O=C(Cc1cccs1)N(c1ccccc1)C1C=CS(=O)(=O)C1` (stereo not drawn), the Potency was inactive: > 76.9 µM.

Consider `CC(=O)N(c1ccc(N(C(C)=O)S(=O)(=O)c2cccs2)cc1)S(=O)(=O)c1cccs1`, for which the Potency is inactive: > 76.9 µM.

With `COCCn1nnnc1C(C(C)C)N1CCN(C(=O)c2ccco2)CC1` (stereo not drawn), the Potency was inactive: > 76.9 µM.

Take `CCC12CC3CC(C1)CC(C(=O)Nc1nn[nH]n1)(C3)C2`: the Potency is inactive: > 76.9 µM.

Regarding `C=CCn1c(Cc2nc3ccccc3[nH]2)n[nH]c1=S`, the Potency is inactive: > 76.9 µM.

Turning to `CCCn1c(C)nc2c(c1=O)c1nc3ccccc3nc1n2CCC1=CCCCC1`, the Potency was inactive: > 76.9 µM.

`CCOC(=O)C1C2C=CC3(CN(c4ccccc4CC)C(=O)C13)O2` (stereo not drawn): the Potency was inactive: > 76.9 µM.

On to `CCOC(=O)CC(=O)CSc1nnc(Cn2c(=O)sc3ccccc32)n1C`, for which the Potency was inactive: > 76.9 µM.

With `COc1ccc(-n2cnnc2SC(C)c2nc3sc(C)c(C)c3c(=O)[nH]2)cc1` (stereo not drawn), the Potency is inactive: > 76.9 µM.

As for `Oc1ccccc1C1=Nc2ncnn2C(c2ccc(F)cc2)C1` (stereo not drawn), the Potency is inactive: > 76.9 µM.

On to `O=C(COc1ccc(Cl)cc1)NCc1nnc(SCC(=O)NC2CCCCC2)o1`, for which the Potency is inactive: > 76.9 µM.

Turning to `CC(C)OC(=O)c1ccc(N2C(=O)C3CC=CCC3C2=O)cc1` (stereo not drawn), the Potency is inactive: > 76.9 µM.

Consider `CCC(c1nnnn1C(C)(C)CC)N(CCCO)Cc1cc2cccc(C)c2[nH]c1=O` (stereo not drawn), for which the Potency was inactive: > 76.9 µM.

In the case of `Cc1cc(C)nc(/N=C/c2c(O)n(C)c(=O)n(C)c2=O)n1`, the Potency was inactive: > 76.9 µM.

As for `O=C1c2ccccc2C(=O)N1CC1=CCS(=O)(=O)C1`, the Potency is inactive: > 76.9 µM.

Turning to `CCN(Cc1ccccc1)C(c1cc2cc(C)cc(C)c2[nH]c1=O)c1nnnn1CCOC` (stereo not drawn), the Potency is inactive: > 76.9 µM.

On to `CCOC(=O)CNC(=O)CSc1nc2ncc(Br)cc2[nH]1`, for which the Potency was inactive: > 76.9 µM.

Consider `COc1cccc(CN2C(=O)C3(C(C#N)=C(N)OC4=C3C(=O)CCC4)c3ccccc32)c1` (stereo not drawn), for which the Potency is inactive: > 76.9 µM.

On to `CCC(C(=O)OCC(=O)Nc1c(C)n(C)n(-c2ccccc2)c1=O)c1ccccc1` (stereo not drawn), for which the Potency was inactive: > 76.9 µM.

On to `Cn1c(SCc2nc3ccccc3s2)nnc1-c1ccc2c(c1)OCO2`, for which the Potency is inactive: > 76.9 µM.

For the compound `CC(=O)N1CCc2cc(S(=O)(=O)NC(CC(C)C)C(=O)N3CCn4c3nc3ccccc34)ccc21` (stereo not drawn), the Potency is inactive: > 76.9 µM.

As for `CCOc1ccccc1NC(=O)CC1NCCNC1=O` (stereo not drawn), the Potency was inactive: > 76.9 µM.

For the compound `OCCSc1c(F)c(SCCO)c(SCCO)c(F)c1SCCO`, the Potency was inactive: > 76.9 µM.

For the compound `Cn1c(O)c(C=NC(CC(N)=O)C(=O)O)c(=O)n(C)c1=O` (stereo not drawn), the Potency was inactive: > 76.9 µM.

Take `Cc1cc(NC(=O)CSc2ccc3nnc(-c4ccc(Cl)cc4)n3n2)no1`: the Potency was inactive: > 76.9 µM.

The values above are taken from PubChem BioAssay AID360 (National Center for Advancing Translational Sciences (NCATS), 2006).
